Measured values published in PubChem BioAssay AID493208 (National Center for Advancing Translational Sciences (NCATS), 2011).
Out of some 44,000 compounds screened, about 340 (0.77%) were called active. Inconclusive results, whose numbers are uncertain, are shown with a selection of clear calls. Calls come from the whole dose curve; as a rule, active = well fitted inhibition curve with a large enough effect; inconclusive = small, poorly fitted or top-dose-only effect; inactive = flat fitted curve, though single readings scatter. No potency is given beside an inconclusive call; the fits are too rough.
Potency is the fitted concentration of half-maximal effect; tags give direction and shape of the fitted curve.

Assay: Acumen qHTS Assay for Inhibitors of the mTORC1 Signaling Pathway in MEF (Tsc2-/-, p53-/-) Cells: Sytravon; note: nearly all actives have a fitted effect of over 50% in size;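 for activity change, negative = inhibition: plate controls were DMSO for no effect and rapamycin for full effect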
Details: phospho-rpS6 immunofluorescence/PI, 24 h; series mostly up to 38.3 µM; activity change, negative = inhibition: at the top concentration
Outline: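 Compounds act on Tsc2-/-, p53-/- fibroblasts carrying an empty vector for 24 h before fixation and dual staining for phospho-S6 and DNA (propidium iodide). Values are percentages of cells above a rapamycin-defined pS6/PI threshold.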
With `CC(C)N(Cc1ccccc1)C(=O)c1nc(-c2ccc(Cl)cc2)n2c1CCCCC2` the “activity change, negative = inhibition” value was inactive: -0.599%. For `Cc1noc2ncnc(N3CCN(c4cccc(C(F)(F)F)c4)CC3)c12`, the “activity change, negative = inhibition” value was inactive: -1.29%. For `Fc1ccc(CN2CCc3nc(N4CCN(c5ccccc5F)CC4)ncc3C2)c(F)c1`, the “activity change, negative = inhibition” value was inactive: 12.6%. For `Cc1cc(C)c(NC(=O)Cn2c(=O)oc3cc(S(=O)(=O)N4CCCCCC4)ccc32)c(C)c1`, the “activity change, negative = inhibition” value was inactive: -3.31%. With `CCC(C)NC(=O)c1cc(Sc2cccc(Cl)c2)nc2ccccc12` (stereo not drawn) the Potency was inconclusive [falling, single point]. In the case of `CCCn1c2ccccc2c2cnn(CC(=O)NCCCN3CCCCC3CC)c(=O)c21` (stereo not drawn), the Potency is reported as inconclusive [falling, single point]. In the case of `CCN1CCN(Cc2c(O)ccc3oc(C)c(C(=O)Nc4cccc(Cl)c4C)c23)CC1`, the “activity change, negative = inhibition” value is reported as inactive: -3.84%. For `Cc1ccc(S(=O)(=O)Cc2ccc(C(=O)N3CCN(c4cccc(Cl)c4)CC3)o2)cc1`, the Potency was inconclusive [falling, single point]. In the case of `CCC1=Nc2cc(C(=O)NCCN(CC)CC)ccc2Sc2ccccc21`, the Potency is reported as inconclusive [falling, single point]. For `CCCCN1CCc2nc(Nc3ccc(OC)cc3OC)ncc2C1`, the Potency was inconclusive [activator, full curve, poor fit]. With `CCOC(=O)c1cccc(NC(=O)c2cc3ccccn3n2)c1` the “activity change, negative = inhibition” value was inactive: 0.383%. With `O=C(Nc1sc2c(c1C(=O)NCc1cccnc1)CCCC2)c1cc(=O)c2ccccc2o1` the Potency was inconclusive [falling, partial curve, poor fit]. With `COc1cccc(-n2c(SCC(=O)Nc3c(C)cc(C)cc3C)nc3c([nH]c4ccccc43)c2=O)c1` the Potency was inconclusive [falling, full curve, poor fit]. In the case of `CCOC(=O)c1c(-c2ccccc2)oc2ccc(N(C(C)=O)S(=O)(=O)c3ccc(CC)cc3)cc12`, the Potency is reported as inconclusive [falling, single point]. For `CCCn1c2ccccc2c2cnn(CC(=O)N(CCCOC)Cc3ccco3)c(=O)c21`, the Potency was inconclusive [falling, single point]. With `COc1cccc(/C=C/C(=O)Nc2ccc3nc(N4CCN(C)CC4)cc(C)c3c2)c1OC` the Potency was inconclusive [falling, single point]. For `CCN1C(C(=O)c2ccccc2)=C(OC(=O)c2ccccc2OC)c2ccccc2S1(=O)=O`, the “activity change, negative = inhibition” value was inactive: 3.34%. With `O=S1(=O)c2ccccc2N(Cc2cccc(Cl)c2)c2ccccc21` the Potency was inconclusive [falling, single point]. With `COc1cc(OC)c(NS(=O)(=O)c2ccc3c(c2)CCCN3C(C)=O)cc1Cl` the Potency was inconclusive [falling, partial curve, poor fit]. For `Cc1ccc(NC(=O)CSc2nc3ccccc3nc2N2CCOCC2)cc1`, the Potency was inconclusive [falling, single point]. With `COc1cccc(Cn2c(CNC(=O)c3cc([N+](=O)[O-])ccc3Cl)nc3cccnc32)c1` the “activity change, negative = inhibition” value was inactive: -0.94%. In the case of `CCOc1cc(CNC(=O)c2ccc(C)c(NC(=O)c3nsc4ccccc34)c2)ccc1OC`, the Potency is reported as inconclusive [falling, partial curve, poor fit]. With `COc1ccc(S(=O)(=O)c2cn(Cc3ccccc3)c3cc(N4CCCC4)c(F)cc3c2=O)cc1` the Potency was inconclusive [falling, partial curve, poor fit]. For `O=C(CCNS(=O)(=O)c1ccc2c(c1)CCN2C(=O)C1CC1)N1CCN(c2ccc(F)cc2)CC1`, the Potency was inconclusive [falling, single point]. In the case of `CC(C)CCNC(=O)CSc1c2c(nc3ccc(Cl)cc13)CCCC2`, the Potency is reported as inconclusive [falling, single point]. In the case of `COc1ccc2c(c1)CCc1c(C(=O)Nc3ccccc3C(F)(F)F)noc1-2`, the “activity change, negative = inhibition” value is reported as inactive: 16%. For `CCN(CC)C(=O)c1sc2c(c1C)c(=O)n(-c1ccccc1)c(=O)n2Cc1cc(=O)n2ccccc2n1`, the “activity change, negative = inhibition” value was inactive: 0.857%. In the case of `COc1ccc(NC(=O)c2ccc3c(c2)c(C)c(C)n3Cc2ccc(F)cc2)cc1`, the Potency is reported as inconclusive [falling, partial curve, poor fit]. With `Cc1cccc2c1-c1sc(C(=O)NCCc3ccc(Cl)cc3)cc1CO2` the Potency was inconclusive [falling, single point]. For `CC(C)(C)C1CCc2c(sc(NC(=O)c3cccc(Cl)c3)c2C(N)=O)C1` (stereo not drawn), the Potency was inconclusive [falling, single point]. In the case of `Cc1ccc2nc(-c3ccncc3)c(Nc3ccccc3C)n2c1`, the Potency is reported as inconclusive [falling, partial curve, poor fit]. For `COc1cccc(-n2c(=O)c3sc4ccccc4c3n(CC(=O)Nc3ccc(F)cc3F)c2=O)c1`, the Potency was inconclusive [falling, full curve, poor fit]. In the case of `Cc1cccc(NC(c2ccccc2C)c2ccc3ccc(C)nc3c2O)n1` (stereo not drawn), the Potency is reported as inconclusive [falling, single point]. With `CN1C(=O)c2ccccc2Sc2ccc(NC(=O)NCc3cccc(Cl)c3)cc21` the Potency was inconclusive [falling, single point]. In the case of `Cc1ccc(NC(=O)CCNS(=O)(=O)c2cccc3nonc23)cc1Cl`, the Potency is reported as inconclusive [falling, partial curve, poor fit]. In the case of `N#C/C(=C/c1cn(Cc2ccccc2Cl)c2ccccc12)C(=O)Nc1cccc(Cl)c1`, the “activity change, negative = inhibition” value is reported as inactive: 4.26%. With `CCc1ccc(CNC(=O)Cn2c(-c3cccs3)cc3cc(F)ccc32)cc1` the Potency was inconclusive [falling, single point]. In the case of `Nc1nonc1C(=O)NCCNCc1ccc(Cl)c(Cl)c1`, the Potency is reported as inconclusive [falling, single point]. With `COc1ccc(CNC(=O)CSc2n[nH]c(-c3ccc(OC)cc3)n2)cc1` the Potency was inconclusive [falling, partial curve]. With `Cc1ccc(-c2[nH]c(-c3ccccc3)nc2SCC(=O)NCC2CCCO2)cc1` (stereo not drawn) the Potency was inconclusive [falling, partial curve, poor fit]. For `COc1cccc(CNC(=O)C(=O)Nc2ccc3nc4n(c(=O)c3c2)CCCCC4)c1`, the “activity change, negative = inhibition” value was inactive: -10.3%. For `O=C(NCCN1CCCCC1)c1ccc(Cn2c(SCc3cccc(F)c3)nc3cccnc32)cc1`, the Potency was inconclusive [falling, single point]. With `O=C(Nc1cc(Cl)cc(Cl)c1)c1ccc(F)c(S(=O)(=O)NC2CCCCC2)c1` the Potency was inconclusive [falling, single point]. For `COc1cccc(-c2cc(C(=O)Nc3ccn(Cc4ccc(C)cc4)n3)no2)c1`, the Potency was inconclusive [falling, single point]. With `O=C(CSCc1cnn(-c2ccccc2)c1-n1cccc1)NCc1ccccc1F` the Potency was inconclusive [falling, partial curve, poor fit]. For `COC(=O)c1ccccc1NC(=O)c1nc(S(=O)(=O)Cc2ccccc2F)ncc1Cl`, the “activity change, negative = inhibition” value was inactive: -4.12%. In the case of `CC(C)Oc1ccc(CNC(=O)c2ccc3nc(SCc4ccc(F)cc4)n(C)c3c2)cc1`, the Potency is reported as inconclusive [falling, partial curve, poor fit]. For `O=C(Nc1ccc2oc(-c3cccnc3)nc2c1)c1ccc(-c2cccc(OC(F)(F)F)c2)o1`, the Potency was inconclusive [falling, single point]. With `COc1cccc(N2CCN(C(=O)c3ccc(CS(=O)c4cccc(Cl)c4)o3)CC2)c1` (stereo not drawn) the Potency was inconclusive [falling, single point]. For `CCc1nnc(NC(=O)c2nc(S(C)(=O)=O)ncc2Cl)s1`, the Potency was inconclusive [falling, single point]. With `COc1ccccc1-c1cc(C(F)(F)F)nc(S(=O)(=O)CCCC(=O)Nc2cc(Br)ccc2O)n1` the Potency was inconclusive [falling, single point]. In the case of `O=C(NCCc1ccccc1)C(=O)NCC(c1cccnc1)N1CCN(c2ccc(F)cc2)CC1` (stereo not drawn), the Potency is reported as inconclusive [falling, single point]. With `O=C(Nc1ccc2oc(-c3ccc4ccccc4c3)nc2c1)c1cc(Br)ccc1Cl` the Potency was active: 16.5 µM. With `COc1ccc(C2=NN(C(C)=O)C(c3cn(-c4ccccc4)nc3-c3cccs3)C2)cc1` (stereo not drawn) the Potency was inconclusive [falling, single point]. In the case of `Cc1cc(N2CCN(C)CC2)nc2ccc(NC(=O)Nc3ccccc3)cc12`, the Potency is reported as inconclusive [falling, partial curve, poor fit]. For `CCOC(=O)c1cc2c(=O)n3ccccc3nc2n(CC(C)C)c1=NC(=O)COc1ccc(Cl)cc1`, the “activity change, negative = inhibition” value was inactive: 2.41%. In the case of `COc1ccc(C(=O)Nc2ccc3nc4c(c(Nc5ccc(OC)c(OC)c5)c3c2)CCCC4)c(OC)c1`, the Potency is reported as inconclusive [falling, single point]. In the case of `Cc1ccc(C)c(N2CCN(C(=O)c3cnn(C(C)(C)C)c3C3CCN(C(=O)OC(C)(C)C)CC3)CC2)c1`, the “activity change, negative = inhibition” value is reported as inactive: 0.325%. With `COc1ccc(CNC(=O)c2nc(SCc3ccc(C)cc3)ncc2Cl)cc1` the “activity change, negative = inhibition” value was inactive: -1.94%. With `Cc1ccc(NC(=O)CN2C(=O)CCc3ccccc32)cc1C` the Potency was inconclusive [falling, single point]. In the case of `CC(C)CCOc1ccc(C2N=C(N)Nc3nc4ccccc4n32)cc1` (stereo not drawn), the Potency is reported as inconclusive [falling, single point]. For `COc1ccc(CC(=O)Nc2cc(-c3cn4cccnc4n3)ccc2C)cc1OC`, the Potency was inconclusive [falling, partial curve, poor fit]. In the case of `COc1ccc(-c2nc3ccccc3n2Cc2ccc(Cl)cc2)cc1`, the “activity change, negative = inhibition” value is reported as inactive: -4.99%.
